Results reported in article PMC4336329 (PLoS ONE, 2015).
Hit rate of the full screen: of about 310,000 compounds, about 2,200 (0.71%) showed an effect of 50% or more. Effects have a minus sign here. Some of the results follow.

The compounds below were run against human ether-à-go-go-related gene (hERG) potassium channel (human, UniProt Q12809) (assay: primary screen, population patch clamp on CHO cells stably expressing hERG).
Chain of human ether-à-go-go-related gene (hERG) potassium channel (Q12809 whole entry, looked up): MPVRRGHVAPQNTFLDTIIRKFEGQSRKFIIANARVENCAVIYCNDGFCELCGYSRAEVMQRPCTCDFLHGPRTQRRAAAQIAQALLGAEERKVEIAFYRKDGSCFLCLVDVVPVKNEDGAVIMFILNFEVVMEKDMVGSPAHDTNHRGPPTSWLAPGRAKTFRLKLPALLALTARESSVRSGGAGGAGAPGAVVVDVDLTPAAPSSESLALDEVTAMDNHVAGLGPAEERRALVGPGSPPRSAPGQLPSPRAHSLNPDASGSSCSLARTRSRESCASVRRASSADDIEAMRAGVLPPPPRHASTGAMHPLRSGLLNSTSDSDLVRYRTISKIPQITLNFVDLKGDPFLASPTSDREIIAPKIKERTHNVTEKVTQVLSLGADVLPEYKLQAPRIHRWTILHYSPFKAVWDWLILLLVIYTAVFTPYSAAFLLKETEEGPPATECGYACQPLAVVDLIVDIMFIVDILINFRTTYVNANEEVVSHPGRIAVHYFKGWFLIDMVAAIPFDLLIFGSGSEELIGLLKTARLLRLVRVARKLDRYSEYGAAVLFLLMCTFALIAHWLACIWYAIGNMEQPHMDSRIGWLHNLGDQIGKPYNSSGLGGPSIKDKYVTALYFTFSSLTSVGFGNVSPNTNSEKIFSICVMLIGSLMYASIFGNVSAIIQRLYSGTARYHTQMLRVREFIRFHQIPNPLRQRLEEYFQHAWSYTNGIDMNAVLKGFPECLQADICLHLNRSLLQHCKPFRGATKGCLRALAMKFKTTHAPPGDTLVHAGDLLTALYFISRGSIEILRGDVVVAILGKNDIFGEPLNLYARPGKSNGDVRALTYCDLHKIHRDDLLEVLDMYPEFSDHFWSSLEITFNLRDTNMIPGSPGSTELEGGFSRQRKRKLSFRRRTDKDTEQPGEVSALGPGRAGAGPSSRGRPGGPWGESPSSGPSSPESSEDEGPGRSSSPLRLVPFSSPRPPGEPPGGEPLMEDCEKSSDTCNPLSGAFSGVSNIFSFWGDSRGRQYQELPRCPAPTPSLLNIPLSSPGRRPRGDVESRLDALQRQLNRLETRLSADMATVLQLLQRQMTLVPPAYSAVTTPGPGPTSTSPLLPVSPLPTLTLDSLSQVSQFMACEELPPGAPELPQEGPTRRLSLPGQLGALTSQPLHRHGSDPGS

Row | SMILES | hERG current change (%, negative = inhibition) at 1uM
1 | Cc1c(C(=O)OC/C(O)=C(\C#N)c2nc3ccccc3[nH]2)oc2ccc(Br)cc12 | 8.98%
2 | CC1(C(=O)N(CC(=O)NC2CCCC2)Cc2ccco2)CC(=O)N=C2C=CC=CN21 (centres unmarked) | 9.85%
3 | N#Cc1ccc(OCC(=O)NCCc2ccc(S(N)(=O)=O)cc2)cc1 | 6.97%
4 | COc1ccccc1CCNS(=O)(=O)c1cc2c3c(c1)C(C)C(=O)N3CCC2 (centres unmarked) | 12.7%
5 | O=C(c1ccco1)N1CCN(S(=O)(=O)c2ccc(C3CCCCC3)cc2)CC1 | 9.58%
6 | COc1ccccc1CNC(=O)c1ccc(NS(=O)(=O)c2c(C)noc2C)cc1 | 5%
7 | O=C(c1ccncc1)c1ccc(N2CCN(C3CC(=O)N(Cc4ccccc4)C3=O)CC2)cc1 (centres unmarked) | -9.19%
8 | CCc1c(C(=O)NCCc2ccc(OC)c(OC)c2)[nH]c(C)c1C(C)=O | 9.02%
9 | CC(C)[C@H](NS(=O)(=O)c1ccccc1)C(=O)OCn1nnc2ccccc2c1=O | 4.31%
10 | Cc1ccccc1-c1nn(-c2ccc(F)cc2F)cc1CNCC(C)O (centres unmarked) | 5.64%
11 | CN(CCOc1ccccc1Cl)Cc1ccccc1.O=C(O)C(=O)O | 14%
12 | CCCC(=O)Nc1c(-c2ccccc2OC)c(=O)c2ccccc2n1C | -1.6%
13 | O=S(=O)(c1cccs1)N1CCN(CC(O)COC2CCCc3ccccc32)CC1 (centres unmarked) | 14.7%
14 | COc1ccc(C(=O)O/N=C(\N)c2ccc(OC)c(OC)c2)c(OC)c1 | 9%
15 | COc1cc(C(=O)OCC(=O)Nc2cc(S(=O)(=O)N3CCOCC3)ccc2C)ccc1OCC(C)C | -0.0958%
16 | Cc1cc(C(=O)CSc2nnc(N)s2)c(C)n1CCc1ccc(Cl)cc1 | -4.99%
17 | Cc1ccc(CNC(=O)CCS(=O)(=O)c2ccc3nc(C)sc3c2)cc1 | 11%
18 | COc1cccc(/C(C)=N/NC(=O)Cc2c(C)[nH][nH]c2=O)c1 | 9.17%
19 | CSc1ccccc1NC(=O)c1ccc(Br)o1 | 5.2%
20 | O=S(=O)(NCC(O)c1ccccc1)c1ccc(-c2ccccn2)s1 (centres unmarked) | 15.6%
21 | Cc1cc(C)cc(C(=O)NC(CC(N)=O)c2ccc(NC3CCCCCCCCCCC3)c([N+](=O)[O-])c2)c1 (centres unmarked) | -5.02%
22 | CCOC(=O)c1csc(NC(=O)C2=COCCO2)n1 | 13.2%

Row | SMILES | hERG current change (%, negative = inhibition) at 1uM
23 | CCOC(=O)N1CCN(C(=O)c2ccc3c(c2)NC(=O)/C(=C\c2ccc(OC)c(OC)c2)S3)CC1 | 9.3%
24 | CC(NC(=O)COC(=O)Cc1ccc(-c2ccccc2)cc1)c1ccccc1 (centres unmarked) | 14.3%
25 | Cn1c(CCN2CCCC2)nc2cc(NS(=O)(=O)c3ccccc3)ccc21 | 6.41%
26 | COc1ccc2cc(C(=O)N3CCC(Cc4ccccc4)CC3)[nH]c2c1 | 16.2%
27 | O=C(COC(=O)c1ccncc1)c1ccc(Br)cc1 | 11.3%
28 | COCCCNC(=O)CCc1c(C)nc2c(-c3ccc(F)cc3)c(C)nn2c1C | -7.41%
29 | CC(C)C[C@@H](C(=O)NC1CCN(Cc2ccccc2)CC1)N1C(=O)N2CCc3c([nH]c4ccccc34)[C@@]2(C)C1=O | -12.1%
30 | CCOC(=O)c1c(NC(=O)CSc2nnc(-c3ccc(C)cc3)o2)sc(C(C)=O)c1C | 13.9%
31 | CCOC(=O)c1sc2nc(C)nc(NCCc3ccc(S(N)(=O)=O)cc3)c2c1C | 13.7%
32 | CCCCC1=CC2=CC(=O)C(C)(OC(=O)CCC(=O)OC)C(=O)C2=CO1 (centres unmarked) | 8.73%
33 | Cc1cc(C(C)(C)C)cc(C)c1S(=O)(=O)N1CCN(C(=O)c2cc([N+](=O)[O-])c[nH]c2=O)CC1 | 3.68%
34 | Cc1cc(N2C(=O)C(O)=C(C(=O)c3cc4ccccc4o3)C2c2ccc([N+](=O)[O-])cc2)no1 (centres unmarked) | 23.7%
35 | CC(C)(C)NC(=O)C(=O)NN=C1CCCCCCCCCCC1 | 10.6%
36 | CC(C)(C)NC(=O)CSc1nc(O)cc(=O)[nH]1 | 11.6%
37 | Cc1ccc2c(c1)N(C(=O)CCC(=O)NCCN1CCOCC1)CC(C)O2 (centres unmarked) | 4.33%
38 | Cc1onc(-c2c(Cl)cccc2Cl)c1C(=O)NCc1ccco1 | 6.16%
39 | Cc1nnc(NC(=O)CSc2ccc(-c3ccccn3)nn2)s1 | 8.53%
40 | COc1cc(/C=N/O)cc(Br)c1OCC(=O)NCc1ccccc1 | -8.18%
41 | N#C/C(C(=O)N1CCOCC1)=C1/SC(Cc2ccccc2)C(=O)N1c1ccccc1 (centres unmarked) | 0.283%
42 | Cc1nc(SCC(=O)Nc2ccccc2Cl)c2c(C)c(C)sc2n1 | 8.62%
43 | COc1cc(OC)c(CNC2CCCCCC2)cc1Br | -3.55%
44 | COc1ccc(-n2ncc3c2CC(C)(C)CC3NC(=O)CCc2c(C)noc2C)cc1 (centres unmarked) | 6.79%

Row | SMILES | hERG current change (%, negative = inhibition) at 1uM
45 | CC(=O)N1c2ccc(S(=O)(=O)N3CCCC3)cc2CC1C(=O)NCc1ccccc1F (centres unmarked) | 10.2%
46 | O=C(CSc1nc2ccccc2s1)Nc1ccc2c(c1)oc1ccccc12 | 3.23%
47 | CSc1ccccc1NC(=O)Cn1nc([N+](=O)[O-])cc1C | 4.8%
48 | CC(C)c1ccc(NC(=O)COc2ccc(F)cc2C(=O)c2cnn(-c3ccccc3)c2)cc1 | 7.99%
49 | CCOCC(=O)Nc1nc2ccc(C)cc2s1 | 3.34%
50 | CC(C)OC(=O)c1cc(C(=O)c2cc(Cl)ccc2O)coc1=N | 22.9%
51 | COc1cccc(NC(=O)N2CCCC2C(=O)NCc2ccccc2F)c1 (centres unmarked) | -1.09%
52 | CCOc1cc(CNc2ccc(N(C)C)cc2)cc(Br)c1OCC(=O)NC(C)(C)C | 7.27%
53 | Cc1cccc(NC(=O)C2CCCN(S(=O)(=O)c3ccc4c(c3)oc(=O)n4C)C2)c1 (centres unmarked) | 9.71%
54 | O=C(NC1CCCC1)C1CCC(CNS(=O)(=O)c2ccc(F)cc2)CC1 (centres unmarked) | -4.73%
55 | Cc1noc(C)c1CSc1nnc(-c2ccccc2)n1N | 5.8%
56 | CCN1/C(=C2\C(=O)N(C)C(=S)N2C)C=Cc2ccccc21 | 9.64%
57 | COc1ccccc1/C=N/NC(=O)c1cccc(OC(F)(F)C(F)F)c1 | 1.99%
58 | CC(CC(=O)N1CCN(S(=O)(=O)c2ccccc2)CC1)n1cncn1 (centres unmarked) | 15.7%
59 | CCOC(=O)CSc1nc2ccc(Nc3nc(N4CCOCC4)nc(N4CCOCC4)n3)cc2s1 | -1.16%
60 | COc1ccc(C(=O)C2CCCN(S(=O)(=O)c3cccnc3)C2)c(C)c1 (centres unmarked) | 3.46%
61 | Oc1c(Br)cc(Cl)cc1C=Nc1ccc(N2CCOCC2)cc1 | 15.1%
62 | CSc1nnnn1-c1ccc(Cl)cc1 | 9.87%
63 | Cc1ccc2[nH]c(=O)c(CN(CCCN3CCOCC3)C(=O)Nc3cccc(Cl)c3)cc2c1 | 7.46%
64 | CC(=O)Nc1ccccc1S(=O)(=O)CC1CC1(Cl)Cl (centres unmarked) | 15.7%
65 | Cc1ccc(CSCCNC(=O)CN(c2ccc(F)cc2)S(C)(=O)=O)cc1 | 17.6%
66 | CN1C(=O)CC(N2CCC(C(N)=O)(N3CCCCC3)CC2)C1=O (centres unmarked) | 2.45%

Row | SMILES | hERG current change (%, negative = inhibition) at 1uM
67 | CC(C)COC(=O)N1C[C@H](O)C[C@H]1C(=O)Nc1ccc(Cl)cc1 | 10.1%
68 | COC(=O)CSc1nnc(C)n1-c1ccc(C)cc1 | 13.7%
69 | COc1ccc(/C=C(\NC(=O)c2ccccc2)C(=O)OCC2CCCN3CCCCC23)cc1OC (centres unmarked) | 3.68%
70 | CC(N)Cc1ccccc1Sc1ccc(O)cc1.O=C(O)C(=O)O (centres unmarked) | -1.15%
71 | COc1ccc(C2(c3ccc(OC)cc3)NC(=O)N(CC(=O)N(C)C)C2=O)cc1 | 15.5%
72 | O=C(CN1CCOCC1)c1ccc2cc[nH]c2c1 | 9.34%
73 | COc1ccc(NS(=O)(=O)c2cc(NC(=O)c3ccc(=O)[nH]c3)ccc2C)cc1 | 18.5%
74 | Cl.Nn1cnnc1N/N=C/c1ccccc1C(F)(F)F | 21.7%
75 | CC(=O)c1ccc(NC(=O)/C(=C\c2ccccc2)NC(=O)c2ccco2)cc1 | 6.59%
76 | CN(c1ccccc1)S(=O)(=O)c1ccc(C(=O)N2CCc3ccccc3C2)cc1 | 0.39%
77 | COC(=O)c1c(-c2ccc(C)cc2)csc1NC(=S)NC(=O)c1ccc(F)cc1 | 4.31%
78 | O=C1C=C(c2cccnc2)CCC1 | 13.7%
79 | CN(CC(=O)Nc1ccc(F)cc1)S(=O)(=O)c1ccc2c(c1)c(=O)n(C)c(=O)n2C | 11.8%
80 | CCCCC(=O)Nc1nnc(C)s1 | 7.9%
81 | Cc1ccc(-c2nc(CSCC(=O)NCC3CCCO3)c(C)o2)cc1 (centres unmarked) | 11.8%
82 | COC(=O)c1nn(-c2ccc(Oc3ccccc3)cc2)c(=O)cc1O | 8.62%
83 | O=C(CN1CCCCC1)NCC(=O)Nc1ccc(Br)cc1C(=O)c1ccccc1 | -77.2%
84 | O=C(Nc1ccccn1)Nc1cccs1 | 6.52%
85 | CC(=O)NS(=O)(=O)c1ccc(NC(=S)NC(=O)CC(C)C)cc1 | 14.1%
86 | CCCCn1c(N)c(N(Cc2ccccc2OC)C(=O)c2cc(=O)[nH]c3ccccc23)c(=O)[nH]c1=O | 7.99%
